Test results: PubChem BioAssay AID894 (National Center for Advancing Translational Sciences (NCATS), 2007)
Hit rate of the full screen: of about 150,000 compounds, about 6,500 (4.3%) were called active. The shares of active, inactive and inconclusive entries below differ from those in the screen. Calls follow the shape of the dose curve; as a rule, active = well fitted inhibition curve with a large enough effect (not every such curve was filed as active); inconclusive = small, poorly fitted or top-dose-only effect, or another doubt; inactive = no such curve, though single readings can be large or run the other way. Potencies of inconclusive entries are left out as doubtful fits.

What follows are compounds tested against 15-hydroxyprostaglandin dehydrogenase [NAD(+)] (Homo sapiens) (UniProt P15428) (assay: qHTS Assay for Inhibitors of HPGD (15-Hydroxyprostaglandin Dehydrogenase)). Details: purified HPGD, NADH fluorescence kinetic, PGE2 substrate; activity change, negative = inhibition: stronger effect = lower value.
UniProt P15428, sequence (P15428 whole entry, looked up): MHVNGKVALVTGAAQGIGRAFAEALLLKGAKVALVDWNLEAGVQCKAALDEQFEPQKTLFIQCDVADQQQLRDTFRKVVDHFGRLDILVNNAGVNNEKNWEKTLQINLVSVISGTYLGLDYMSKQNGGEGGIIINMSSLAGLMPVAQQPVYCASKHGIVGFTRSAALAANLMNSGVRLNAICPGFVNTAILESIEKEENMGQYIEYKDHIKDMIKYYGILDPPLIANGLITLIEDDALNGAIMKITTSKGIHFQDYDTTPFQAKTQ
How it was run: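 20 nM HPGD preincubated 15 min at room temperature with compound in 50 mM Tris-HCl pH 8, 0.01% Tween 20. Started with 1 mM NAD+ and 30 uM prostaglandin E2; NADH fluorescence (360/450 nm) read 5 times over 30-s intervals, last minus first.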
% is scaled to controls: 0 for no effect and ±100 for the full control effect; potency is read from the fitted curve at half-maximal effect; tags tell the direction and shape of the fitted curve.

| Structure (SMILES) | Potency | activity change, negative = inhibition |
| --- | --- | --- |
| Cn1c(-c2sc3cc(C(F)(F)F)cnc3c2-c2cccnc2)n[nH]c1=S | active: 28.2 µM | – |
| Cc1cccc2cc(C#N)c(NCCCn3ccnc3)nc12 | inconclusive [inhibitor, partial curve] | – |
| CC1CCCN(C(=O)CSc2cnc3ccccc3n2)C1 (configuration not stated) | active: 4.47 µM | – |
| CC(=O)N1CCN(C(=S)c2ccc(Cl)cc2)CC1 | active: 25.1 µM | – |
| c1cc(CSc2ncnc3nc[nH]c23)ccn1 | – | inactive: -4.69% |
| COc1cccc(-n2nnc3c(=O)n(Cc4c(F)cccc4Cl)cnc32)c1 | active: 28.2 µM | – |
| O=C(COC(=O)CCCOc1ccc(Cl)cc1Cl)NCc1ccccc1 | inconclusive [inhibitor, single point] | – |
| Clc1cccc(CSc2nnc([C@@H]3CCCN3)o2)c1 | inconclusive [inhibitor, partial curve] | – |
| Oc1ccc(C2=NNC(=NCc3ccc4c(c3)OCO4)SC2)c(O)c1 | inconclusive [inhibitor, partial curve] | – |
| CCOC(=O)C(C(C)=O)C(c1ccc(OCCC(C)C)cc1)C(C(C)=O)C(=O)OCC (configuration not stated) | – | inactive: -19.8% |
| O=C1c2ccccc2C(=O)N1CSc1nnc(Nc2ccccc2F)s1 | – | inactive: -19% |
| Nc1c(S(=O)(=O)c2cccs2)c2nc3ccccc3nc2n1CCc1ccccc1 | inconclusive [inhibitor, partial curve] | – |
| COc1ccc(-c2oc3ncn(CCN4CCOCC4)c(=N)c3c2-c2ccc(OC)cc2)cc1 | inconclusive [inhibitor, partial curve] | – |
| COc1ccc(CCNC(=O)C2CCN(S(=O)(=O)c3cc(OC)ccc3OC)CC2)cc1 | – | inactive: -2.66% |
| CC(=O)c1cccc(NC(=O)COc2cc3oc(=O)c(CC(C)O)c(C)c3cc2Cl)c1 (configuration not stated) | inconclusive [inhibitor, partial curve] | – |
| COc1cc(C(=S)NC2CCCCC2)ccc1O | inconclusive [inhibitor, single point] | – |
| Cc1ccc(-c2nc(C#N)c(NCc3ccco3)o2)cc1 | inconclusive [inhibitor, partial curve] | – |
| CCCCS(=O)(=O)/C=C\C=C/S(=O)(=O)CCCC | active: 25.1 µM | – |
| Cn1c(=O)c2c(nc(CN3CCN(c4ccccc4)CC3)n2CCN2CCOCC2)n(C)c1=O | – | inactive: 1.76% |
| CCCCCC(=O)NC(=S)Nc1ccc(NC(=O)c2ccco2)cc1 | inconclusive [inhibitor, partial curve, poor fit] | – |
| CCCCOc1ccc(C(=O)N2CC(C)OC(C)C2)cc1 (configuration not stated) | inconclusive [inhibitor, partial curve, poor fit] | – |
| Oc1c(C=NCc2ccc(F)cc2)[nH]c2ccc(Br)c(Cl)c12 | inconclusive [inhibitor, partial curve] | – |
| N#C/C(=C/c1ccco1)c1nc2ccccc2s1 | inconclusive [inhibitor, partial curve] | – |
| COc1cc(NC(=O)c2ccco2)c(OC)cc1NC(=O)CCC(=O)Nc1cc(C)cc(C)c1 | inconclusive [inhibitor, single point] | – |

| Structure (SMILES) | Potency | activity change, negative = inhibition |
| --- | --- | --- |
| C=CCn1c(N)c(C(=O)OC(C)(C)C)c2nc3ccccc3nc21 | inconclusive [inhibitor, partial curve] | – |
| O=C(c1cnn2c(C(F)(F)F)cc(-c3cccs3)nc12)N1CCN(C(c2ccccc2)c2ccccc2)CC1 | inconclusive [inhibitor, partial curve] | – |
| CN(C)c1ccc(-c2cc(NCc3ccccc3)ncn2)cc1 | inconclusive [inhibitor, partial curve] | – |
| CCn1c2ccccc2c2cc(NC(=O)CSc3nnc(-c4ccc(OC)cc4)n3N)ccc21 | inconclusive [inhibitor, partial curve] | – |
| CC(=O)N1C(C(=O)O)CSC1c1ccc(C)cc1 (configuration not stated) | – | inactive: -7.4% |
| CCCCCn1c(SCC(=O)OC)nc2c1c(=O)[nH]c(=O)n2C | – | inactive: -5.95% |
| O=c1c2[nH]c3ccc(F)cc3c2ncn1CCCn1ccnc1 | inconclusive [inhibitor, single point] | – |
| O=C(COC(=O)/C=C/c1ccc2c(c1)OCO2)NC1CC1 | inconclusive [inhibitor, partial curve] | – |
| Cc1cc(C)c(S(=O)(=O)N2CCN(c3ccc([N+](=O)[O-])c(-n4nc(C)cc4C)c3)CC2)c(C)c1 | – | inactive: -12.4% |
| CCOC(=O)C(Sc1ncnc2c1sc1nc(N3CCOCC3)c3c(c12)CCCC3)c1ccccc1 (configuration not stated) | inconclusive [inhibitor, partial curve] | – |
| O=C(NCCN1CCc2ccccc2C1)C1CC(=O)N(C2CCCC2)C1 (configuration not stated) | inconclusive [inhibitor, partial curve] | – |
| CCN(CC)Cc1csc(C(N)=O)c1 | inconclusive [inhibitor, partial curve, poor fit] | – |
| O=c1[nH]c(/C(Cl)=C/c2c(F)cccc2Cl)nc2cc(Cl)ccc12 | inconclusive [inhibitor, partial curve] | – |
| O=C(OC[C@@H](O)CO)c1ccccc1Nc1ccnc2cc(Cl)ccc12 | – | inactive: -6.86% |
| Cc1nc2ccc(S(=O)(=O)Nc3cccc(-c4nc5cccnc5s4)c3)cc2s1 | inconclusive [inhibitor, single point] | – |
| CC(=O)N1CCn2c3ccc(C)cc3c3cccc1c32 | – | inactive: -12.3% |
| CCC1(C)Cc2c(sc3nn[nH]c(=O)c23)CO1 (configuration not stated) | inconclusive [inhibitor, single point] | – |
| CC/C(C)=N/O | – | inactive: -2.9% |
| CCN(CC)CCNC(=O)c1ccc2c(=O)n(CCc3ccccc3)c(=O)[nH]c2c1 | inconclusive [inhibitor, partial curve] | – |
| CCC1=C(OC(=O)N(CC)CC)N2C(=O)OC(=NCCc3c[nH]c4ccccc34)[C@]2(Cc2ccccc2)[C@H]2C1=CC[C@H]1C(=O)N(CC)C(=O)[C@H]12 | – | inactive: -10.4% |
| O=C1C(c2[nH]c3ccc(S(=O)(=O)O)cc3c2O)=Nc2ccc(S(=O)(=O)O)cc21 | inconclusive [inhibitor, partial curve] | – |
| O=C(O)c1ccc(N/N=C/c2ccc3ncccc3c2)cc1 | inconclusive [inhibitor, partial curve] | – |
| O=C(NCc1ccccc1)Nc1cccn(Cc2ccc(F)cc2)c1=O | inconclusive [inhibitor, partial curve] | – |
| COc1ccc(NC(=O)CCCn2c(=O)c3sccc3n(Cc3cccc(C)c3)c2=O)cc1 | – | inactive: -3.9% |

| Structure (SMILES) | Potency | activity change, negative = inhibition |
| --- | --- | --- |
| CCN(CC)S(=O)(=O)c1cccc(NC(=O)COC(=O)/C=C/c2ccco2)c1 | – | inactive: -12.6% |
| Cc1ccc(SCCNC(=O)/C=C/c2ccccc2Cl)cc1 | inconclusive [inhibitor, partial curve] | – |
| CNC(=O)c1cc2c(ccc3ccccc32)oc1=N | inconclusive [inhibitor, partial curve] | – |
| O=C(NNC(=O)c1cc([N+](=O)[O-])ccc1Cl)c1cccs1 | – | inactive: -9.46% |
| CCOC(=O)Nc1sc(=S)n(C)c1C | active: 25.1 µM | – |
| COc1cc(OC)c(C2=NOC(C(=O)N3CCCc4ccccc43)C2)cc1Cl (configuration not stated) | inconclusive [inhibitor, single point] | – |
| CCn1c(-c2ccc(N(C)C)cc2)nc2ccccc21 | inconclusive [inhibitor, partial curve] | – |
| COc1ccc(-c2nnc3ccc(SC(C(C)=O)C(C)=O)nn23)cc1OC | active: 14.1 µM | – |
| COc1ccccc1Cn1c(=O)c2ccccc2n2c(SCC(=O)N3CCCCC3)nnc12 | inconclusive [inhibitor, single point] | – |
| COC(=O)N/N=C/c1cc(Cl)c(OCc2ccc(F)cc2)c(OC)c1 | – | inactive: -12.8% |
| CN=C1S/C(=C\c2ccc(N3CCOCC3)cc2C)C(=O)N1C | – | inactive: -15.6% |
| Cc1csc(NC(=O)c2cc3c(s2)CCC3)n1 | active: 7.94 µM | – |
| COc1ccnc(NCc2cccnc2)c1C#N | inconclusive [inhibitor, partial curve] | – |
| Cc1cc(C)n(C(=O)CCNC(=O)c2ccccc2Cl)n1 | active: 15.8 µM | – |
| COc1cccc(-c2nnc(SC(C(=O)c3c[nH]c4ccccc34)c3ccccc3)n2C)c1 (configuration not stated) | – | inactive: -14% |
| CCCCC(=O)NCc1ccc2c(c1)cc(C)n2C | active: 1.12 µM | – |
| COC(=O)c1cccc(NC(=O)NC23CC4CC(CC(C4)C2)C3)c1 | inconclusive [inhibitor, partial curve, poor fit] | – |
| Cc1nn(-c2ccccc2)c2nc(-c3ccncc3)cc(C(=O)NCc3ccco3)c12 | inconclusive [inhibitor, single point] | – |
| NCCSC[C@H](N)C(=O)O | – | inactive: 1.56% |
| COC(=O)c1sc(=S)n(-c2ccccc2)c1N | active: 14.1 µM | – |
| Cc1sc(NC(=O)c2ccco2)nc1-c1ccc2c(c1)CC(C)N2C(=O)C1CC1 (configuration not stated) | inconclusive [inhibitor, single point] | – |
| Cc1cc(Nc2nc(Cl)c(Cl)cc2Cl)n(-c2ccccc2)n1 | – | inactive: -1.37% |
| CCc1cccc(NC(=O)Cn2c(=O)oc3cc(S(=O)(=O)N4CCOCC4)ccc32)c1 | – | inactive: -16.5% |
| CC1CCN(S(=O)(=O)c2ccc(NC(=O)Cn3nnc(-c4ccccc4F)n3)cc2)CC1 | – | inactive: -24.9% |
